Assay results: the supplement of paper PMC6746778
Where a name gives a salt, the structure may show the parent alone. Some of the results follow. Many values rest on one well or one pass, so single values are uncertain.

What was measured:
Experiment in all cases: proliferation Z-score within cell line (SRB, relative to all inhibitors screened on that line); triple-negative breast cancer lines and a kinase inhibitor library; SRB is the sulforhodamine B protein stain; higher = less growth inhibition (more resistant)
Conditions in all cases: concentration: 1 µM; 4 days
Bt20 = system: Bt20
Bt549 = system: Bt549
HCC1143 = system: HCC1143
HCC1806 = system: HCC1806
HCC1937 = system: HCC1937
HCC38 = system: HCC38
HCC70 = system: HCC70
Hs578T = system: Hs578T
MDA-MB-231 = system: MDA-MB-231
MDA-MB-435s = system: MDA-MB-435s
MDA-MB-436 = system: MDA-MB-436
MDA-MB-453 = system: MDA-MB-453
MDA-MB-468 = system: MDA-MB-468
SKBR7 = system: SKBR7
SUM1315MO2 = system: SUM1315MO2
SUM149PT = system: SUM149PT
SUM159PT = system: SUM159PT
SUM185PE = system: SUM185PE
SUM229PE = system: SUM229PE
SUM52PE = system: SUM52PE
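Note: Single-dose primary screen of a 378-member kinase inhibitor library in 96-well plates, with growth read as absorbance of protein-bound SRB dye after TCA fixation.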

Row | Structure (SMILES) | proliferation Z-score within cell line (Bt20) | proliferation Z-score within cell line (Bt549) | proliferation Z-score within cell line (HCC1143) | proliferation Z-score within cell line (HCC1806) | proliferation Z-score within cell line (HCC1937) | proliferation Z-score within cell line (HCC38) | proliferation Z-score within cell line (HCC70) | proliferation Z-score within cell line (Hs578T) | proliferation Z-score within cell line (MDA-MB-231) | proliferation Z-score within cell line (MDA-MB-435s) | proliferation Z-score within cell line (MDA-MB-436) | proliferation Z-score within cell line (MDA-MB-453) | proliferation Z-score within cell line (MDA-MB-468) | proliferation Z-score within cell line (SKBR7) | proliferation Z-score within cell line (SUM1315MO2) | proliferation Z-score within cell line (SUM149PT) | proliferation Z-score within cell line (SUM159PT) | proliferation Z-score within cell line (SUM185PE) | proliferation Z-score within cell line (SUM229PE) | proliferation Z-score within cell line (SUM52PE)
1 | Cn1cnc(=N)c2[nH]cnc21 [3-Methyladenine] | 0.614 | 0.797 | 0.813 | 0.889 | 0.7 | 0.538 | 0.697 | 0.709 | 1.01 | 0.72 | 0.688 | 1.05 | 1.1 | 0.892 | 0.878 | 0.792 | 0.578 | 0.72 | 0.551 | 0.969
2 | C[C@@]1(C(=O)Nc2ccc(F)nc2)CCCN1c1nc(Nc2cc(C3CC3)n[nH]2)c2cccn2n1 | -2.01 | -0.269 | 0.317 | -0.663 | 0.602 | -0.924 | 0.865 | -0.521 | -1.2 | -1.59 | 0.839 | -0.6 | -1.63 | -1.96 | -1.01 | -1.57 | 0.593 | -0.684 | -1.18 | -1.16
3 | Cc1ccc(Nc2nccc(N(C)c3ccc4c(C)n(C)nc4c3)n2)cc1S(N)(=O)=O [Pazopanib] | 0.042 | 0.552 | 0.281 | 0.578 | 0.492 | 0.405 | 0.181 | 0.678 | 0.0886 | 0.303 | 0.192 | 0.616 | 0.435 | 0.328 | -0.983 | 0.112 | 0.457 | -0.867 | 0.674 | -1.8
4 | COc1cc2nccc(Oc3ccc(NC(=O)C4(C(=O)Nc5ccc(F)cc5)CC4)cc3)c2cc1OC [Cabozantinib malate (XL184)] | 0.881 | 0.678 | 0.512 | 0.86 | 0.843 | 0.538 | 0.64 | 0.495 | 0.476 | 0.423 | 0.519 | 0.848 | 0.81 | 0.345 | 0.335 | 0.688 | 0.465 | 0.243 | 0.434 | -1.69
5 | COc1cc(N2CCC(N)CC2)ccc1Nc1ncc(Cl)c(-c2c[nH]c3ccccc23)n1 | 0.41 | 0.379 | -1.07 | -1.4 | -0.238 | 0.512 | 0.367 | 0.174 | -1.21 | -2.06 | -0.639 | -1.3 | -0.508 | -0.573 | -1.7 | -1.26 | 0.294 | -2.37 | -1.2 | -1.84
6 | Cc1cc(C)c(/C=C2\C(=O)Nc3ccccc32)[nH]1 [Semaxanib (SU5416)] | 1.01 | 0.655 | 0.765 | 1.09 | 0.866 | 0.584 | 0.825 | 0.56 | 0.889 | 0.924 | 0.706 | 0.565 | 0.894 | 1.02 | 0.525 | 0.922 | 0.571 | 0.999 | 1.06 | 1.22
7 | NC(=O)c1ncn([C@@H]2O[C@H](CO)[C@@H](O)[C@H]2O)c1N [Acadesine] | 0.904 | 0.802 | 0.783 | 0.496 | 0.696 | 0.586 | 0.725 | 0.724 | 0.7 | 0.83 | 0.802 | 0.852 | 1.05 | 0.616 | 1.8 | 0.832 | 0.672 | 1.33 | 0.941 | 1.64
8 | N#CC(=Cc1ccc(O)c(O)c1)C(=O)NCc1ccccc1 [AG-490 (Tyrphostin B42)] | 1.02 | 0.477 | 0.686 | 0.765 | 0.512 | 0.532 | 0.791 | 0.687 | 0.952 | 0.989 | 0.724 | 0.717 | 0.637 | -0.0949 | 0.881 | 0.82 | 0.548 | 0.657 | 0.706 | 1.19
9 | Cc1cc(Nc2ncnc3ccc(-c4ccc(CNCCS(C)(=O)=O)o4)cc23)ccc1Oc1ccn2ncnc2c1 [HER2-Inhibitor-1] | 0.956 | 0.724 | 0.836 | 0.909 | 0.813 | 0.684 | 0.828 | 0.813 | 0.825 | 0.954 | 1.19 | 0.932 | 0.934 | 0.832 | 0.931 | 0.961 | 0.732 | 0.889 | 0.691 | 1.26
10 | COc1ccc(F)c(F)c1C(=O)c1cnc(NC2CCN(S(C)(=O)=O)CC2)nc1N | -0.365 | -0.747 | -0.776 | -0.00414 | 0.302 | 0.174 | -0.927 | -0.311 | -0.978 | -0.66 | -0.409 | -0.749 | -0.534 | -1.18 | 0.0358 | -0.297 | -1.06 | 0.343 | -0.1 | -0.533
11 | O=C1NC(=O)/C(=C/c2ccc3nccc(-c4ccncc4)c3c2)S1 | -2.64 | -2.03 | 0.581 | -1.54 | 0.751 | -1.47 | 0.739 | -2.08 | -1.42 | -1.27 | 0.989 | -2.11 | -1.03 | -0.665 | -0.709 | -0.654 | 0.545 | -1.8 | -1.57 | -1.23
12 | CC(=O)c1c(C)c2cnc(Nc3ccc(N4CCNCC4)cn3)nc2n(C2CCCC2)c1=O | -0.0671 | 0.229 | -1.85 | -1.17 | -0.447 | 0.315 | -0.366 | -0.884 | -1.54 | -0.388 | -0.56 | -1.48 | 0.746 | -0.764 | -0.181 | -1.24 | -0.698 | -0.263 | -0.231 | -0.305
13 | CS(=O)(=O)CCNCc1ccc(-c2ccc3ncnc(Nc4ccc(OCc5cccc(F)c5)c(Cl)c4)c3c2)o1 | 0.257 | 0.369 | 0.537 | -0.869 | 0.615 | 0.433 | 0.339 | 0.58 | 1.21 | 0.737 | 0.465 | -0.348 | -0.489 | -0.896 | 0.426 | 0.162 | 0.432 | 0.248 | -0.134 | 0.779
14 | COc1cc(Nc2nc3ccccc3nc2NS(=O)(=O)c2ccc(NC(=O)c3ccc(C)c(OC)c3)cc2)cc(OC)c1 | 0.165 | 0.536 | 0.523 | 0.429 | 0.76 | 0.48 | 0.509 | 0.773 | 0.696 | 0.687 | 0.169 | 0.491 | 0.822 | 0.39 | 0.411 | 0.47 | 0.522 | 0.39 | 0.132 | -0.0769
15 | O=C(Nc1cccc(Cl)c1)Nc1ncc(CCNc2ncnc3ccsc23)s1 [SNS-314 Mesylate] | -1.01 | -0.173 | 0.558 | 0.398 | 0.461 | -0.431 | 0.617 | -0.321 | -1.04 | -0.185 | -0.41 | -0.617 | -1.89 | -0.48 | 0.845 | 0.225 | 0.0614 | 1.06 | 0.202 | -0.281
16 | COc1cc(Nc2ncc(F)c(Nc3ccc4c(n3)NC(=O)C(C)(C)O4)n2)cc(OC)c1OC [R406 (free base)] | 0.557 | 0.702 | -2.23 | 0.645 | -0.597 | 0.608 | -0.48 | 0.807 | 0.552 | 0.497 | -0.531 | 0.886 | 0.541 | 0.558 | 0.318 | 0.175 | -0.252 | 0.532 | 0.386 | 0.798
17 | Cn1cc(-c2ccc3ncc(Cc4ccc5ncccc5c4)n3n2)cn1 | 0.496 | 0.803 | 0.785 | 0.636 | 0.673 | 0.653 | 0.708 | 0.871 | 0.677 | 0.985 | 1.04 | 1.06 | -0.381 | 0.972 | 0.797 | 0.875 | 0.635 | 0.778 | 0.82 | 0.893
18 | CCc1cc(Nc2nccc(-c3c(-c4ccc(OC)c(C(=O)Nc5c(F)cccc5F)c4)nc4ccccn34)n2)c(OC)cc1N1CCC(N2CCN(S(C)(=O)=O)CC2)CC1 | 1.17 | 0.475 | 0.951 | 0.376 | 0.585 | 0.247 | 0.728 | 0.0691 | 0.739 | 1.04 | 0.84 | -0.668 | 0.904 | -0.596 | 1.07 | 0.956 | 0.565 | 1.26 | 1.02 | 1.23
19 | CCn1c(N)c(C(=O)NC)c(=O)c2ccc(C#CC(C)(O)COC)nc21 (stereo not given) | 0.883 | 0.586 | 0.914 | 0.928 | 0.618 | 0.617 | 0.78 | 0.446 | 1.09 | 0.647 | 0.7 | 0.585 | 1.12 | 0.969 | 0.764 | 0.751 | 0.703 | 0.346 | 0.844 | 0.543
20 | COc1ccc(Cl)cc1NC(=O)Nc1cc(C)nc2ccccc12 | 0.424 | 0.313 | 0.288 | 0.254 | 0.899 | 0.312 | 0.344 | 0.583 | 0.646 | 0.102 | 0.301 | 0.123 | 0.596 | -0.453 | 0.538 | 0.208 | 0.15 | 0.278 | 0.641 | 0.945
21 | CN1CCN(c2ccc3nc(-c4c(N)c5c(F)cccc5[nH]c4=O)[nH]c3c2)CC1 [Dovitinib (TKI-258, CHIR-258)] | 0.314 | 0.29 | -0.0759 | 0.113 | 0.73 | 0.376 | 0.262 | 0.463 | -0.164 | -0.833 | 0.173 | 0.917 | -0.0902 | -0.0891 | -1.7 | -0.462 | 0.35 | -1.49 | 0.0539 | -1.34
